Data published in the supplement of paper PMC12217912.
This is one part of the list. The full chains were built here from the parent and the listed change. Values near 0.05 are background.

B1: TEV protease; numbered along this chain (parent)
chain: MGESLFKGPRDYNPISSSICHLTNESDGHTTSLYGIGFGPFIITNKHLFRRNNGTLVVQSLHGVFKVKDTTTLQQHLVDGRDMIIIRMPKDFPPFPQKLKFREPQREERICLVTTNFQTKSMSSMVSDTSCTFPSGDGIFWKHWIQTKDGQCGSPLVSTRDGFIVGIHSASNFTNTNNYFTSVPKNFMELLTNQEAQQWVSGWRLNADSVLWGGHKVFMVKPEEPFQPVKEATQL

Variants of: B1
Assay: raw area under fraction-flipped curve 0-4 h after induction (AUC4h, not background-subtracted), DNA-recorder readout of cleavage of the substrate (dimensionless); higher = more cleavage of the substrate by the protease variant
Conditions: temperature: 34 °C; time window: 0-4 h after rhamnose induction
Experimental: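 In vivo DNA recorder in E. coli TOP10(DE3) ΔrhaA at 34 °C. Each TEVp single-site mutant (parent TEVp 0) is paired with a single-site variant of the 7-mer TEVs (canonical ENLYFQ|S). The substrate sits between flexible linkers in a Bxb1-sfGFP-TEVs-SsrA fusion, so cleavage stabilises Bxb1 and speeds flipping of a recombination array, read by NGS. The value is the raw area under the fraction-flipped curve over 0-4 h after rhamnose induction (AUC4h), with ≥20 reads per time point. It is not background-subtracted; inactive controls average about 0.047.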
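Also: Bxb1 expression induced with 0.2% (w/v) L-rhamnose at OD600 near 0.5, cultures sampled hourly, flipped fraction per protease–substrate barcode pair counted by paired-end Illumina sequencing.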

Row | Variant | area with substrate ENLYAQS | area with substrate ENLYCQS | area with substrate ENLYDQS | area with substrate ENLYEQS | area with substrate ENLYGQS | area with substrate ENLYIQS | area with substrate ENLYNQS | area with substrate ENLYPQS | area with substrate ENLYQQS | area with substrate ENLYSQS | area with substrate ENLYVQS | area with substrate ENLYWQS | area with substrate ENLYYQS | area with substrate ENLYHQS | area with substrate ENLYKQS | area with substrate ENLYMQS | area with substrate ENLYTQS | area with substrate ENLYRQS | area with substrate ENLYLQS
1 | N24M | 0.0563 | 0.117 | 0.0636 | 0.063 | 0.0586 | 0.103 | 0.0719 | 0.0883 | 0.0781 | 0.0687 | 0.0847 | 0.0838 | 0.0252 | – | – | – | – | – | –
2 | G166I | 0.0353 | 0.0498 | 0.0603 | 0.0583 | 0.06 | 0.0454 | 0.0459 | 0.053 | – | – | 0.0363 | – | 0.05 | 0.0524 | 0.042 | 0.0599 | 0.0562 | – | –
3 | G2D | 0.0885 | – | 0.0619 | 0.0803 | 0.0785 | 0.112 | 0.0636 | 0.0612 | 0.0562 | – | 0.101 | – | 0.0514 | 0.0677 | 0.0736 | 0.0884 | – | 0.0586 | –
4 | W199R | 0.0676 | 0.0577 | 0.0574 | 0.0665 | 0.0643 | 0.0497 | 0.0733 | 0.0583 | 0.0549 | – | 0.0452 | 0.0592 | – | 0.0569 | 0.0612 | 0.0572 | 0.0664 | 0.0569 | 0.0543
5 | R106T | 0.0777 | 0.0811 | 0.0629 | 0.0784 | 0.0705 | 0.0947 | 0.0536 | 0.0748 | 0.0679 | 0.0779 | 0.106 | 0.0779 | – | 0.0827 | 0.0418 | 0.094 | 0.0899 | 0.0601 | –
6 | I167S | 0.0756 | 0.0952 | 0.0557 | 0.0534 | 0.0551 | 0.0812 | 0.0463 | 0.0694 | 0.063 | – | 0.105 | 0.0781 | – | 0.0622 | 0.0495 | 0.061 | – | – | 0.0498
7 | F38N | 0.0641 | – | 0.0696 | – | 0.0412 | 0.0978 | 0.0552 | 0.0608 | 0.0591 | 0.0617 | – | – | – | 0.0599 | 0.0486 | – | 0.0704 | 0.0571 | 0.106
8 | V229G | 0.0771 | – | 0.0715 | 0.0655 | 0.067 | 0.113 | 0.0723 | 0.0955 | 0.0738 | – | – | 0.101 | – | – | 0.0056 | 0.0836 | – | – | 0.171
9 | G39T | 0.048 | – | 0.0534 | 0.0589 | 0.0454 | 0.0445 | 0.0475 | 0.0533 | 0.0476 | 0.0517 | 0.0498 | – | – | 0.0508 | 0.0518 | 0.0609 | 0.0418 | 0.0437 | 0.0376
10 | E107H | 0.0455 | – | – | – | 0.0748 | – | 0.0756 | 0.0564 | 0.0559 | – | – | 0.0884 | – | – | – | 0.099 | – | 0.0574 | –
11 | S135P | 0.0651 | – | – | 0.0686 | 0.0602 | – | 0.0597 | 0.0618 | – | 0.0564 | 0.0775 | 0.0545 | 0.0583 | 0.0595 | 0.0617 | – | – | 0.0604 | –
12 | S135V | 0.0428 | – | 0.0637 | 0.0557 | – | 0.0628 | 0.061 | 0.0561 | 0.0603 | 0.0649 | 0.0779 | 0.0624 | – | 0.0379 | 0.0709 | 0.0665 | – | – | –
